# Reference: the supplement of paper PMC11417369
# Some of the results follow.
# Test system: PfAP2-HC AP2 domain (GST-tagged)
# Experiment: gcPBM binding intensity (ln(normalized median fluorescence intensity)); higher = stronger DNA binding
# Procedure, shortened: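 DNA-binding domains from P. falciparum, fused to GST and produced in E. coli, were put on an Agilent 4 × 180k double-stranded probe array for 1 h in 1× PBS holding 1% milk, 0.2 mg/ml BSA, 0.5% salmon testes DNA and 0.03% Triton X-100. Probes were primer-extended, 36 bp long and drawn from intergenic genomic regions, with negative controls included. After Alexa488 anti-GST antibody detection and a 488 nm scan, binding intensity was set as the highest Masliner-normalised natural-log median intensity across replicate spots of either probe orientation.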
row,Sequence,gcPBM binding intensity (ln)
1,CCCAGGAATATAAAATGTACATAAAAAATACAAATT [XGTACX_site1708],9.63
2,AGTACATTATAGAATACACACCTATACATTTATATA [CACACA_site6391],9.82
3,TTTTTTTTTTTTGGATGTACTTAATGAAAATGTTAC [XGTACX_site8980],9.42
4,TAAGCACAAGCACAAGCACACATTTATATATATATA [CACACA_site883],9.68
5,AATATAATATATATTAGTACATATATATATATATAT [XGTACX_site870],9.58
6,CCTCATATTATAGACACACACAAAAAAAATAAAAAA [CACACA_site180],9.98
7,TCATTATTATATAATTGTACATAATAATTATATCCA [XGTACX_site1801],9.58
8,ATGTATGTGTATATATGTACATAATATATATCTTTT [XGTACX_site8666],9.89
9,TGATTATTTTATATTTGTACACATATCATATAAAAA [XGTACX_site5868],9.48
10,ATGCAAACTAAAAGACGTACAGAAAAGTATCATACT [XGTACX_site8766],9.75
11,ACGTTTTTGAGTAGTACACACACAATAAGGATGGAT [CACACA_site9044],10
12,ACATAATATTGAAGAAGTACAAATTTTATTTATTAT [XGTACX_site4113],9.55
13,ATTATTATGTATTGCCGTACACATATTATCACAGAA [XGTACX_site3740],9.71
14,TCTTCATATATAATTGTACACACAAAAACGACATTG [CACACA_site8645],9.84
15,TATTATAATTAATATACACACGCTTATATATATATA [CACACA_site75],9.73
16,TATAAATAAACATTTACACACTCTTATAATAAATAT [CACACA_site1679],9.63
17,ACATGTACAGAAATTTATATATATATATATATATAT [CACACA_negctrl_site1584],9.74
18,TTATCATTTTTGGAATGTACTTACATTAAATATTTA [XGTACX_site4034],9.59
19,TATATGCAAAATGTCACACATGTGATAAATACATAT [CACACA_site4302],9.94

row,Sequence,gcPBM binding intensity (ln)
1,AACTAATAGTATATTACATGCAAAAGTAAAAGTAAA [TGCATGCA_site411],9.81
2,CTCACAATACTTACATGTACATATTATATATATAAA [XGTACX_site1880],9.79
3,GTTGAAATAAAATTAGTGCATATATAAATATATATA,9.52
4,ACTGAAAAAAGAAATACACACATTCTGGATCAGATA [CACACA_site7760],9.85
5,TCATTCTTGTGTTTATGTACACATATTTATATTGTA [XGTACX_site710],10.2
6,AAAGACAAAAGGAATTGTACATAATATATAAAATAT [XGTACX_site2923],9.73
7,AATTTTATTTAAAGTGCATGTAAAATTAAAACTTTT [TGCATGCA_site989],9.22
8,GGGAAACGATTTAATACACACACGTATTATATATAT [CACACA_site1160],10.1
9,ATATAAAATATGAGTAGTACATATTTTCTCATCTTA [XGTACX_site8595],9.56
10,CATTTTTTGTAAAATCGTACATATACATAAAGTGGT [XGTACX_site3423],9.49
11,CACAAAAGTAAGCACGCACACACAACATGAAATAAA [CACACA_site7938],10.5
12,TATGAATTTATCTACAACATTTGAAATAAATTAAAA [CACACA_negctrl_site79],9.35
13,TAAATAAATACATACACACACATACCTATATTTATA [CACACA_site7466],10.4
14,TTTTATAAAAACAAAAACAAAGGCACTTTCTAAAGA [XGTACX_negctrl_site130],9.58
15,AATATAAATATAAATATAAATATATATATATATATA [TGCATGCA_negctrl_site603],9.51
16,ATAATGTATATTATTGCACACATATATAAAATTATG [CACACA_site8280],9.84
17,TGTATACACATATGTACACACATATAGATGTATATG [CACACA_site7447],9.84
18,ATATAATAATATTATACATGCAAAATATGTTCTTCA [TGCATGCA_site115],9.62
19,AGACTATCATTTTTTTAACACACAAAAAAAATAAAA [CACACA_site9173],9.59

row,Sequence,gcPBM binding intensity (ln)
1,ATCGCATATACATTATATTTTATAATAATTATTTTT [GTGCAC_negctrl_site48],9.82
2,AATACACACCTGTGGGTGCTTATAATAAGCCACAAA,9.74
3,TATTTTTTTATTTATTGTACTTTAAAAAAAATTAAA [XGTACX_site6167],9.33
4,TAACAAATATTATTTTGTACATAATATATATATATA [XGTACX_site6898],9.41
5,TTATAAAAATATTACGCACACACAAACTTATTCATT [CACACA_site1970],10.2
6,TATATATATTAATTTATTTATTTGTTTATTTATTTA [CACACA_negctrl_site185],9.69
7,ATATATTTATATTATACACACAAAAATATTTTGTAT [CACACA_site6262],9.87
8,AAGAATTATAGAAACACACATACATACAGACATACA [CACACA_site1943],10.1
9,TAATTACCATATGGTACACACATATATATCTGTATA [CACACA_site5849],9.96
10,AATAATATCTGAAAATGTACATTTTATTATAAACAT [XGTACX_site8441],9.8
11,AAGAAGAGTTATTGTAGTACATTTTTAAATGTAATA [XGTACX_site7664],9.69
12,AGTTAAATGAATCAATACATAAATATGTATATATAT [TGCATGCA_negctrl_site539],9.61
13,TTTTTTTAATAAATTTATAACAATATGATAGGTGAC [CACACA_negctrl_site1783],9.49
14,TGAATCAATTGTTGCTGTACATAAGGTATACAATAA [XGTACX_site5127],9.56
15,TATTTGGGTATTTTTACACACATTAATATATATATA [CACACA_site9114],9.72
16,AAAGATAATAATATGCGTACATAAAAATATATGATA [XGTACX_site6884],9.77
17,ATAATGGAAAAAAAATATAATAATACGAAATAGGAA [TGCATGCA_negctrl_site64],9.96
18,TTATAAATTTTTAATAGTACATAAAATTAAAGGTAA [XGTACX_site760],9.19
